# Measurements published in PubChem BioAssay AID686979 (National Center for Advancing Translational Sciences (NCATS), 2013).
# Where “and” joins values, the source holds several entries; their conditions need not be identical. Equal values may be shown once. Among all 420,000 compounds or so, about 50,000 (12%) were called active. The shares of active, inactive and inconclusive entries below differ from those in the screen. Calls come from the whole dose curve; as a rule, active = well fitted inhibition curve with a large enough effect; inconclusive = small, poorly fitted or top-dose-only effect; inactive = flat fitted curve, though single readings scatter. Potencies of inconclusive entries are doubtful fits and often do not repeat.
# Experiment: qHTS for Inhibitors of human tyrosyl-DNA phosphodiesterase 1 (TDP1): qHTS in cells in presence of CPT; note: nearly all actives have a fitted effect of over 55% in size
# Conditions: chicken DT40 Tdp1-/-;hTDP1 cells + 20 nM CPT, ATP luminescence, 48 h; activity change, negative = growth inhibition: at 46.2 µM (top of the series) unless noted
# Procedure, shortened: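 Chicken DT40 Tdp1-/- cells stably complemented with human TDP1 were seeded at 400 cells/well in medium containing 20 nM camptothecin, exposed to pin-transferred compounds, and grown at 37 °C for at least 48 hr. Viability was read as ATP luminescence.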
# % is set by controls: 0 for no effect and ±100 for the full control effect; potency is the fitted concentration of half-maximal effect; tags give direction and shape of the fitted curve.
Compound,Potency,"activity change, negative = growth inhibition"
CCOC(=O)c1c(NC(=O)Cn2nc(C(=O)O)c3ccccc3c2=O)sc2c1CCC(C)C2 (stereo not drawn),"inconclusive: 25.9 µM [inhibitor, partial curve, poor fit]",–
COc1cccc(-c2cccc(NC(=O)C3CCN(Cc4cnn(C)c4)CC3)c2)c1,inactive,–
Cc1ccccc1NC(=O)c1csc2c1CCCC2,active: 5.8 µM,–
CCN(CC(=O)Nc1ccc2c(c1)OCCO2)Cc1cc(=O)oc2c(C)c(C)ccc12,"inconclusive: 9.2 µM [inhibitor, partial curve, poor fit]",–
Cn1ccnc1SCC(=O)Nc1ccc(Cl)cn1,inactive,–
COc1ccc(C(CNC(=O)c2cc3c(s2)CCCC3)N2CCOCC2)cc1 (stereo not drawn),inactive,–
O=C(CSc1ccccc1F)NCC(c1cccs1)N1CCOCC1 (stereo not drawn),"inconclusive: 16.4 µM [inhibitor, single point]",–
O=C(CCl)N1CCCC1c1ccc2c(c1)OCCO2 (stereo not drawn),active: 0.731 µM,–
COc1ccc(Cn2nnnc2C(c2ccc3ncccc3c2)N2CCN(C3CCCCC3)CC2)cc1 (stereo not drawn),"inconclusive: 29.1 µM [inhibitor, single point]",–
N#CC(C#N)=C(Nc1ccc(F)cc1)SCc1cccc(F)c1,active: 2.59 µM,–
O=C(CSc1ncccc1-c1nc2ccccc2[nH]1)N1CCc2ccccc21,"inconclusive: 4.61 µM [inhibitor, partial curve]",–
Cn1nc(C(C)(C)C)cc1C(=O)NNC(=O)c1ccc(C(F)(F)F)cc1,"inconclusive: 16.4 µM [inhibitor, partial curve]",–
COc1ccc(-c2csc3nc(-c4ccc(F)cc4)oc(=O)c23)cc1,inactive,–
CCCCS(=O)(=O)N1C2=NC(C(=O)OC)=C(C(=O)OC)[C@@H]3N(C)c4ccc(OC)cc4[C@]23C[C@H]1C(=O)OC,"inconclusive: 29.1 µM [inhibitor, single point]",–
COc1cc(/C=C2\CCC/C(=C\c3ccc(O)c(OC)c3)C2=O)ccc1O,active: 7.08 µM,–
CCn1nc(C)c(CN2CCC(C(=O)Nc3cccc(-c4cccc(Cl)c4)c3)CC2)c1C,"inconclusive: 6.51 µM [inhibitor, single point]",–
Cc1nc2sc(C(c3ccco3)N3CCc4ccccc4C3)c(O)n2n1 (stereo not drawn),"inconclusive: 29.1 µM [inhibitor, single point]",–
Cc1ccc(/C=C2/C(=O)N(c3ccccc3)C(=S)N2C)o1,"inconclusive: 29.1 µM [inhibitor, single point]",–
CC1CCCN(C(=O)C(C)Sc2nc(-c3ccccc3)cc(C(F)(F)F)n2)C1 (stereo not drawn),"inconclusive: 25.9 µM [inhibitor, single point]",–
Cc1cccc(C)c1NC(=O)C(NC=O)c1ccccc1 (stereo not drawn),"inconclusive: 11.6 µM [inhibitor, partial curve, poor fit]",–
COc1cc(OC)cc(C(=O)NC(C(=O)NNC(=O)CN(C)S(=O)(=O)c2ccc(C)cc2)C(C)C)c1 (stereo not drawn),inactive,–
CCOC(=O)C1=CN(Cc2ccco2)S(=O)(=O)N(CC)C1c1ccc(F)c(Cl)c1 (stereo not drawn),"inconclusive: 29.1 µM [inhibitor, single point]",–
COc1ccccc1-c1cnc2c(c1)C(=O)N([C@@H](C)CO)C[C@H](C)[C@H](CN(C)C)O2,inactive,–

Compound,Potency,"activity change, negative = growth inhibition"
Cc1ccc(S(=O)(=O)N2CCN(c3ccc4nnc(-c5ccccc5)n4n3)CC2)cc1,"inconclusive: 9.2 µM [inhibitor, partial curve]",–
Cc1ccccc1NC(=O)c1cccc(C(=O)Nc2ccccc2C)c1,"inconclusive: 9.2 µM [inhibitor, partial curve]",–
O=C1CCCN1c1ccc(S(=O)(=O)N2CCN(c3ccccn3)CC2)cc1,–,inconclusive: -32.4% [inhibitor]
CCCC(=O)Nc1nn(CCC)c2nc3ccccc3cc12,"inconclusive: 25.9 µM [inhibitor, single point]",–
O=C(OCc1ccccc1)N1CCCCC1c1c(Cl)cccc1Br (stereo not drawn),"inconclusive: 18.4 µM [inhibitor, single point]",–
CC(=O)C(C(c1ccccc1)c1c[nH]c2ccccc12)[N+](=O)[O-] (stereo not drawn),active: 6.51 µM,–
COC(=O)c1cc(=O)n(Cc2ccc3c(c2)OCO3)c(=Nc2ccc(F)c(Cl)c2)s1,active: 8.2 µM,–
O=C(NC1CCN(S(=O)(=O)c2ccc(F)cc2)CC1)c1ccc(F)cc1,inactive,–
CC1CC(C)CN(C(C(=O)NC2CCCCC2)c2cc3ccccc3o2)C1 (stereo not drawn),"inconclusive: 16.4 µM [inhibitor, single point]",–
CCOC(=O)CN1C(=O)CC(c2ccccc2)C1=O (stereo not drawn),"inconclusive: 29.1 µM [inhibitor, single point]",–
COc1cc(Nc2ccc(S(N)(=O)=O)cc2)c([N+](=O)[O-])nc1[N+](=O)[O-],active: 16.4 µM,–
COc1cc(Cl)c(C)cc1NC(=O)c1cnn(-c2ccc(C)cc2)c1-n1cccc1,inactive,–
O=C(CCC(=O)N1CCOc2ccccc21)N1CCN(c2ccccc2)CC1,"inconclusive: 25.9 µM [inhibitor, single point]",–
COc1cc(C(=O)NC2CC(C)(C)Cc3c2cnn3-c2ccccc2)cc(OC)c1OC (stereo not drawn),inactive,–
Cc1ccc(C)n1-c1ccc(NC(=O)c2ccccc2)cc1,"inconclusive: 25.9 µM [inhibitor, partial curve]",–
CCOC(=O)/C(C#N)=C/c1c(N2CCN(C)CC2)nc2ccccn2c1=O,inactive,–
O=C(NCc1nnc2n1CCN(C(=O)/C=C/c1ccccc1)CC2)c1cccc(F)c1,inactive,–
Cc1ccc(S(=O)(=O)N2C[C@@H]3[C@H]4CC[C@H](C4)[C@@H]3[C@@H](C)[C@H]2c2ccn(Cc3ccccc3)c2)cc1,active: 29.1 µM,–
Cc1cc(NC(=O)COc2coc(CN3CCN(c4ccc(F)cc4)CC3)cc2=O)no1,inactive,–
CC(C)(C)n1nnnc1C(C1CC1)N1CCN(C/C=C/c2ccccc2)CC1 (stereo not drawn),inactive,–
c1coc(-c2nc3ccccn3c2Nc2ccc3c(c2)OCCO3)c1,"inconclusive: 18.4 µM [inhibitor, single point]",–
CCn1cc(S(=O)(=O)c2cccc(C)c2)c(=O)c2cc(F)c(N3CCCCC3C)cc21 (stereo not drawn),"inconclusive: 16.4 µM [inhibitor, single point]",–
Cc1nc(-c2ccc(C)c(N3CCN(C(=O)Nc4ccc(Br)cc4)CC3)c2)no1,"inconclusive: 29.1 µM [inhibitor, single point]",–

Compound,Potency,"activity change, negative = growth inhibition"
COc1ccccc1NS(=O)(=O)c1cc(C(=O)NC2CCN(Cc3ccccc3)CC2)ccc1C,"inconclusive: 18.4 µM [inhibitor, single point]",–
COc1ccc(-n2c(=O)c3sc4ccccc4c3n(CC(=O)N3CCCC3)c2=O)cc1,inactive,–
CN1CCc2c(sc3nc(NCCO)n(-c4cccc(Cl)c4)c(=O)c23)C1,inactive,–
O=C(C1CCN(c2nc(-c3ccccc3)nc3c2CCC3)CC1)N1CCCC1,"inconclusive: 29.1 µM [inhibitor, single point]",–
CCn1cc(CCC(=O)NCCc2ccccc2)c2ccccc21,"inconclusive: 8.2 µM [inhibitor, partial curve, poor fit]",–
Cc1ccc(Cn2c(SCc3ccc(C(=O)NCCc4ccccc4)cc3)nc3ccncc32)cc1,active: 14.6 µM,–
COc1cccc(CN(Cc2ccco2)C(c2ccc(F)cc2)c2nnnn2C(C)(C)C)c1 (stereo not drawn),"inconclusive: 29.1 µM [inhibitor, single point]",–
COc1ccc(-c2cn3c(n2)sc2cc(C(=O)Nc4ccccc4F)ccc23)cc1,"inconclusive: 6.51 µM [inhibitor, partial curve]",–
Cc1cc(N2CCOCC2)nc(SCC(=O)c2ccccc2)n1,inactive,–
COc1ccc(OCc2nn3c(Cn4cnc5ccccc54)nnc3s2)cc1,active: 20.6 µM,–
CN(CC(=O)Nc1ccc(Cl)c(C(F)(F)F)c1)C(=O)CNC(=O)C1CCCCC1,"inconclusive: 16.4 µM [inhibitor, single point]",–
COc1ccc2cc([C@H](C)C(=O)N(C)Cc3ccccc3N3CCCC3)ccc2c1,active: 23.1 µM,–
CCn1nnnc1SCC(=O)c1cccc(OC)c1,"inconclusive: 25.9 µM [inhibitor, single point]",–
O=[N+]([O-])c1ccc(Cn2cc(-c3cccc(C(F)(F)F)c3)nn2)cc1,"inconclusive: 35.5 µM [inhibitor, single point] and inconclusive: 29.1 µM [inhibitor, single point]",–
COc1ccc(N(CC(=O)NCc2ccc(C)cc2)S(=O)(=O)c2ccccc2[N+](=O)[O-])c(OC)c1,"inconclusive: 18.4 µM [inhibitor, single point]",–
O=C(CCS(=O)(=O)c1ccccc1)Nc1ccc(N2CCN(Cc3ccccc3)CC2)cc1,"inconclusive: 29.1 µM [inhibitor, single point]",–
CCOC(=O)c1c(NC(=O)C2CCCCC2)sc2c1CCN(CC)C2,"inconclusive: 29.1 µM [inhibitor, single point]",–
CCc1ccc(CNCCSc2nnnn2C)cc1,inactive,–
CN(C)CCNC(=O)c1ccc2nc(CCc3ccccc3)oc2c1,"inconclusive: 18.4 µM [inhibitor, single point]",–
COc1cccc(S(=O)(=O)N(C)C[C@H]2OCc3cnnn3CCCC(=O)N([C@H](C)CO)C[C@@H]2C)c1,inactive,–
COc1cc(OC)cc(-c2sc3ccc(OC)cc3c2C#CCO)c1,"inconclusive: 20.6 µM [inhibitor, single point]",–
N#C/C(=C\Nc1ccc2c(c1)OCCO2)c1nc(-c2ccccc2)cs1,"inconclusive: 20.6 µM [inhibitor, single point]",–
